In the RNAGym collection of RNA variant scans (doi:10.1093/nar/gkz1192) one finds self-cleavage data, which are given here for 167 variants.

Read counts are not given, so values of variants with three or more changes are uncertain.

B1: CPEB3 Ribozyme (parent)
chain: UAACAGGGGGCCACAGCAGAAGCGUUCACGUCGCAGCCCCUGUCAGAUUCUGGUGAAUCUGCGAAUUCUGCUGUAUAUCUC

The variants in the series derive from B1. Nature of the series: self-cleavage, relative activity (ratio to wild type); higher = more cleavage; in vitro, sequencing. The method in brief:
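CPEB3 self-cleaving ribozyme mutant libraries were made by rounds of error-prone PCR, barcoded, and transcribed in vitro with T7 RNA polymerase for 5 hours at 37°C. Cleavage occurred during transcription and a 15 min DNase I step before EDTA stop. RNAs were reverse transcribed with template switching and Illumina-sequenced, with DNA sequencing mapping barcodes to variants. Relative activity is the variant's cleaved/total read fraction divided by wild type's (minimum 5 reads), averaged across three batches.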
Take A28U A57G U58C: the self-cleavage was 0.17.
Take C29A U51C U67A: the self-cleavage was found to be 0.18.
Take A28U C29A U51C U67A: the self-cleavage was determined as 0.19.
As for A28G U74G A75U, the self-cleavage came to 1.12.
In the case of A28U U31G A35C C40A U43C A57G it was 0.1; in that of C29G U58C U72C U76C, 0.09; in that of A28U U60G C68A U74C, 0.15.
For C29G U54A A56C, the self-cleavage stood at 0.1.
The value for A28U A35U U43A U54C was 0.39; that for A28U A35U U41A C71G was 0.1.
Take C29U A56G U72C: the self-cleavage is 0.66.
Turning to C29A U31C U43C A64G U66C G73A, the self-cleavage amounted to 0.26.
For A28G U72C A75U, the self-cleavage was 0.89.
The value for A28U A35U U48C U69C was 0.1; that for A28U U51A A75U was 0.59; that for A28U G42A A45U was 0.3.
As for A28U C38A A57G G63A A77G U78C, the self-cleavage was 0.07.
The value for C29U A47G U74C A75G was 0.58; that for A28U U41A A47G U67C was 0.12.
As to A28U A35C A65G G73A, the self-cleavage is 0.46.
On to C29A U31C U58A U78A, for which the self-cleavage was 0.17.
With A28U U43A U74C, the self-cleavage was 0.94.
In the case of A28U U43C A65G it was 0.21.
In the case of A28U U60A U80G it was 0.39; in that of A28U U41A C59U, 0.26; in that of C29G A65G U72A, 0.17.
On to A28U U51G U72C, for which the self-cleavage came to 1.05.
C29A C37G A47G U48C U76A: the self-cleavage was 0.06.
In the case of A28U U31A A45G U69A U78A it was 0.07; in that of A28U U51C U66C, 0.16; in that of C29U A35U U66C U80A, 0.06.
As for C29A C32U A45U C71U, the self-cleavage worked out at 0.12.
In the case of C29G U54C U66C it was 0.09; in that of A28U A45G U74C, 0.87; in that of C29U A45C A47G U54C U60A A65U, 0.18.
The value for A28U U54A A57G was 0.66.
As to A28U U31A U41C A64G, the self-cleavage was determined as 0.24.
Consider A28U U43G G46A A56U, for which the self-cleavage is 0.07.
In the case of C29G U43C U60A U72G U78C it was 0.07; in that of A28U G63A U67C U80C, 0.38; in that of A28U U49A A77G, 0.42.
In the case of A28U U48C U72C U76A it was 0.2.
In the case of A28U U69C A75G it was 0.35; in that of A28G U72C U74C A75G, 0.38; in that of A28U U43A A56G U67A U69C, 0.25.
Regarding A28U U58C U67C U69C, the self-cleavage stood at 0.1.
As to A28U A57G A64U A75G U78C, the self-cleavage turned out to be 0.09.
Regarding A28U U60G U69C, the self-cleavage was 0.15.
The value for C29G A35U A56U was 0.14; that for A28U U31A U78A was 0.59; that for C29G C38U U78C was 0.17.
In the case of A28U C34U U67C it was 0.11; in that of A28U A35U U48C U67C, 0.08; in that of C29U A35G U43C A65G U69C U80C, 0.08.
The value for C29G A57G U67A was 0.14; that for A28U U48C G55U A56G U72C was 0.12; that for A28U U60C U67A G70A was 0.17.
Regarding C29U A45C U48C U72A, the self-cleavage stood at 0.1.
In the case of C29A G33A A35G A65G U67C A77G it was 0.08; in that of C29A U41C U43C U58A A64C U78A, 0.13; in that of C29A A57G U58C U74A A75G, 0.11.
In the case of A28U G30A A64G U69C it was 0.1; in that of A28U A56G A65G U69C U74C A77U, 0.28; in that of A28U G63A A64G, 0.42.
In the case of C29A U41A A57G it was 0.23.
As for A28U U54G U72G U80C, the self-cleavage came to 1.08.
On to A28U U49C U80A, for which the self-cleavage was 0.43.
In the case of A28U U31C C40A U41A U67C it was 0.07; in that of A28U A57G U74C, 1.13; in that of A28U C39A A57C, 0.09.
As to A28U A35U C50U A65G, the self-cleavage amounted to 0.16.
The value for A28U C50U U54A U72C was 1.07.
The value for A28U G33A A47G U51A A57C U60C C81G was 0.01; that for A28U U60C U67C was 0.16; that for A28U G46U U54A was 0.13.
Regarding A28U U60C U72C, the self-cleavage was determined as 0.49.
With A28G U74A U78C, the self-cleavage is 1.21.
The value for A28U C40A U41C U58C U60C was 0.15; that for A28U U41A A57G was 0.38.
For the variant A28U U41A A57U, the self-cleavage was found to be 0.2.
Turning to C29G U41A U51A U72C, the self-cleavage is 0.08.
Consider A28U U41C A64U U80C, for which the self-cleavage stood at 0.53.
In the case of A28U A45G U67G it was 0.18; in that of C29G A47U U49C U60A U78C, 0.23; in that of C29G U41A A47U A64G U78C, 0.05.
In the case of C29A A75C U76C it was 0.36; in that of C29G G52A A56G U66C, 0.14; in that of A28U A35G U41C, 0.87.
Regarding A28U U31C C39U A56U U80C, the self-cleavage came to 0.19.
On to C29A U43A A57G, for which the self-cleavage came out at 0.22.
For C29U A45U U48A U51C A64G G70A, the self-cleavage is 0.17.
In the case of A28U U31A U54C C81U it was 0.45; in that of C29A A56G U72C, 0.6; in that of A28U U49C U51A A56G A57G C71U U72G, 0.23.
In the case of A28U U41C U48C G63U U66C U67C U78C it was 0.1; in that of A28U U43A A56G U60G, 0.13.
In the case of A28U U48C A65G it was 0.09; in that of A28U A35C U51C U72A, 0.15.
Turning to A28U U31A C50U, the self-cleavage was found to be 0.48.
On to A28U U41C G46U U67C U74C, for which the self-cleavage amounted to 0.14.
The value for C29A U48C A65G was 0.14; that for A28U U48C U76A was 0.43.
In the case of A28U A35G A45G A77U it was 1.18; in that of A28U A45C A56G, 0.21.
In the case of A28U U54A U76A U78C it was 0.64; in that of A28U C34G U80C, 0.09.
With A28U C68G U72A, the self-cleavage is 0.18.
In the case of A28U U31A U72G, the self-cleavage was 0.42.
For A28U U60A U67A, the self-cleavage amounted to 0.12.
The value for A28U U54C A64G was 0.78.
Take C29G G33A U43A: the self-cleavage came out at 0.36.
The value for C29A U43A A47G U60C U76C U80C was 0.07; that for C29G A57G U66C U72A U80A was 0.07; that for C29A U60C U80C was 0.31.
The value for A28U A45G G46A U72A was 0.42; that for A28U U41C A47G A56G was 0.62; that for A28U A35G A65G U66C was 0.31.
As for C29U A45U U51C, the self-cleavage is 0.24.
In the case of A28U C40U A56G it was 0.31; in that of A28U U31C G33C, 0.08.
Take A28U A65G U69C U74A: the self-cleavage stood at 0.24.
The value for A28U A35U U69A A75G was 0.08; that for C29U A47G U51A was 0.39; that for C29U A35G G70C U80A was 0.2.
In the case of A28U G33U G46U A64G it was 0.06.
As for A28U A35G U58A U76C, the self-cleavage stood at 0.84.
In the case of A28U A35U C37U it was 0.17; in that of A28U A57G U80C, 0.74.
Consider A28U A57U U78C U80C, for which the self-cleavage was determined as 0.39.
Take A28U A35G C79U: the self-cleavage amounted to 1.41.
In the case of C29U A47U A64G it was 0.39; in that of C29A U43C U54A, 0.42; in that of A28U C40U U54C, 0.5.
As to A28U U31C U69C, the self-cleavage stood at 0.39.
Consider A28U U69C U76C A77U, for which the self-cleavage came out at 0.25.
Regarding A28U U31C A45G U49A U54C U66C, the self-cleavage is 0.2.
In the case of A28U U41A U43A U48C A65G U80C it was 0.09; in that of A28U U41C G61A U78C, 0.47.
Turning to C29G A35G U72A, the self-cleavage was 0.27.
In the case of A28U U31C A56G U80C it was 0.43; in that of C29U A47U U78C, 0.36; in that of A28U A35G U48C A56G U69A, 0.31.
The value for C29G C38A A64U was 0.21; that for A28U U49C U60C U72A was 0.16; that for A28U A56G U76A was 0.66.
For the variant C29G A47U U49C A64U U78C, the self-cleavage turned out to be 0.09.
In the case of A28U U54C U58C G70A U72G it was 0.09; in that of A28U A35G A45G, 1.21.
For the variant A28U U31C U76A, the self-cleavage is 0.6.
As to A28U U49C C68A U69C U78C, the self-cleavage came to 0.09.
The value for A28U C29U U51C was 0.28.
The value for A28U A45U G63U A65G U67G U72C was 0.09; that for A28U U41C U67C was 0.18.
Take C29G C62A A65G: the self-cleavage came to 0.34.
In the case of A28U U58C U80C it was 0.29; in that of C29G C44A U69C U74C, 0.33.
Consider A28U A57G U66A, for which the self-cleavage is 0.45.
In the case of A28U A64G U69C it was 0.21; in that of A28U C38G U48C U74C, 0.2.
The value for C29A U51A U69A was 0.09; that for A28U A35G U41A U54A was 0.19; that for A28U A47G A57U C79U was 0.12.
The value for C29A U41A U60A was 0.27.
For the variant C29A C37U A64G U66A U78C, the self-cleavage amounted to 0.06.
The value for C29U A35U C37G U41G U51A U78A was 0.09.
For A28U C39U U49C U69C U80C, the self-cleavage is 0.07.
Consider C29A A47G U66A U72A, for which the self-cleavage amounted to 0.15.
